Experiments:
hGREM1 = target: T1, hGREM1 (Homo sapiens, UniProt O60565); assay: ELISA affinity and specificity of 14E3; type: binding
T1 sequence (O60565 25-184): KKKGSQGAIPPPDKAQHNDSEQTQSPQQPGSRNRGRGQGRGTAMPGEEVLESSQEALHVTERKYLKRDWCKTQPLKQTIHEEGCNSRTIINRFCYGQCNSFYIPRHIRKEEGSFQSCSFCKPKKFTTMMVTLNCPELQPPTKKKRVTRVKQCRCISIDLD
Protocol: (§1) 14E3 was tested to target GREM1 in human PCa. The affinity and specificity of this antibody to hGREM1 was verified by ELISA (FIG. 12A). […] This antibody potentiated the anti-tumor effect of Enzalutamide in AR dependent LNCaP cells (FIG. 12B, 12C, 10K, 10L).

PC3 cells = assay: Sphere formation, proliferation and apoptosis of PC3 cells; type: cell-based, human
Description: Metastatic prostate cancer is a devastating disease and most cancers progress upon serial treatments with either androgen receptor antagonist or chemotherapy. One of the key cell types resistant to these treatments are cells with stem cells like property which has the capability of forming tumor spheres in suspension culture. To explore the role of GREM1 in the progression of CRPC, we utilized AR independent CRPC cell line PC3, as well as the AR dependent PCa cell line LNCaP and LAPC4. We generated cell sublines with loss or gain of GREM1 expression (FIGS. 3A, 4A and 5A).
as §1

LNCaP cells = assay: Sphere formation, proliferation and apoptosis of LNCaP cells; type: cell-based, human
Protocol: as §1
14E3 was tested to target GREM1 in LNCaP PCa cells.

[1] = system: FGFR1/MEK/ERK signaling pathway; assay: FGFR1/MEK/ERK phosphorylation in PCa cell lines (immunoblotting); type: cell-based, human
Protocol: In order to test whether Gremlin1 promoted the FGFR-MAPK signaling, we first performed analysis of the expression levels of the four FGFRs in CRPC patients. […] We treated LNCaP and PC3 with GREM1 in different concentrations (1 ng/ml, 10 ng/ml, 100 ng/ml) and examined phosphorylation levels of FGFR1, MEK and ERK.
MAPK signaling can be activated through many membrane receptors besides FGFR. To test whether the activation of MAPK pathway by GREM1 was via FGFR, we constructed a FGFR1 knockout LNCaP subline by the CRISPR/Cas9 method. […] To further test whether the tumor promoting effect of GREM1 was through FGFR, we utilized small molecule inhibitors of FGFR or EGFR.
14E3 was tested to target GREM1 in human PCa.

[2] = system: BMPRII knockout LNCaP cells; assay: Effect of 14E3 on BMPRII knockout PCa cells; type: cell-based, human; conditions: BMPRII knockout by CRISP/Cas9; LNCaP cell proliferation and sphere formation
PC3 xenograft = PC3 xenograft in nude mice, serial passage; type: in vivo
Protocol: To test the effect of 14E3 in CRPC in vivo, nude mice bearing the CRPC cell line PC3 xenograft were injected intraperitoneally with anti-GREM1 antibody or IgG2a three times a week for 2 weeks (10 mg/kg body weight).

PC3 tumor = assay: PC3 CRPC model with castration; type: in vivo; conditions: castrated Balb/c nude mice; i.p. 10 mg/kg twice a week; vs mouse IgG2a
Protocol: Tumor growth inhibition activity of 14E3 in PC3 CRPC model with castration was studied. Briefly, PC3 cells were subcutaneously implanted into Balb/c nude mice at 1×10^6 cells per mouse and then mice were treated with castration surgery to make CRPC (castration-resistant prostate cancer) model. When tumor volume grew to 100 mm^3 (Day 20), mice were treated with either isotype control mouse IgG2a or 14E3 hybridoma antibody (mlgG2a). Each group had 8 mice and antibodies were given intraperitoneally (i.p.) at 10 mg/kg twice a week. Tumor volume was measured twice a week in two dimensions using a caliper (INSIZE).

PC-3 cells = assay: Scratch migration assay of PC-3 cells; type: cell-based, human; conditions: 10 μg/ml 14E3, 3 days
Protocol: PC-3 cells at log-growth phase were harvested and re-suspended in cell culture medium (DMEM medium supplied with 10% FBS). Cells were non-treated or treated with 1 μg/ml Gremlin or 10 μg/ml 14E3 or 10 μg/ml control mIgG2a for 3 days. Then cells were planted at 10^5 cells/well in 6-well cell culture plate. After cells reached 100% coverage of the bottom of wells, the medium was changed to serum free medium. Each well was made with one scratch using 200 μl-tip. The migration rate of cells were analyzed by calculating the area of cells growing on the scratch using Image J software.

LNCaP-PSA cells = assay: LNCaP-PSA reporter cell assay (PSA-low population, flow cytometry); type: cell-based; conditions: 1 ug/ml human gremlin with serially diluted antibody; dose-dependent; day 7
Description: In order to assess the role of gremlin1 in modulating tumor prostate cell growth, we tested the antibodies provided herein in an assay involving prostate cancer cell LNCaP. This cell line was transfected with a PSA promoter driven GFP expression lentivirus plasmid. PSA is known as a differentiated marker of prostate cell and prostate cancer cells with low level of PSA represent poorly differentiated or undifferentiated prostate cancer cells. These cells usually have stem cell like property and have more aggressive growth property. The LNCaP reporter cell assay is briefly described below.
LNCaP-PSA cells were plated in 24-well plates at 10000/well in RPMI 1640/10% FBS (GIBCO), 1% P/S (complete media) and incubated at 37° ° C. and 5% CO2 overnight. The next day, remove media, 1 ug/ml human gremlin (ACRO) or human gremlin with serially diluted antibodies were added to the cells. Change medium every three days. On day 7, remove media from the wells, wash with PBS twice, run flow cytometer (Bechman) using FITC channel.

[3] = system: patient derived organoids (PDOs); assay: Patient derived organoids (PDOs) from CRPC patients; type: cell-based, human; conditions: PDOs from nine CRPC patients; to different degree
Protocol: We then tested whether the anti-GREM1 antibody display suppressive effect on patient derived organoids (PDOs). The PDOs were freshly collected from PCa patients at Ren Ji Hospital. Briefly tumor tissues from nine CRPC patients were harvested from surgery and cut into 1-5 mm3 and washed once with HBSS, the tissues was then digested to single cell suspension using CollagenaseII+10 μM Y-27632 at 37° ° C. for 4 hours, followed by neutralization of digestion using base culture medium. After that the tumor tissue was further digested using 1 ml TrypLE+10 μM Y-27632 for 15 minutes at 37° C. followed by neutralization using medium with 10% FBS. The resulting cells were resuspended in 50% matrigel+50% medium and 50 ul of the cell suspension was dispensed into each well of the 96-well plate. Afterward the prewarmed PDO medium (B27, N acetylcysteine, EGF, Noggin, R-sponsdin 1, A83-1, FGF10, FGF2, Prostaglandin E2, Nicotinamide, SB202190, DHT and Y27632) was added to the culture and fresh medium was added every 2-3 days.

PC3-luc cells = assay: PC3-luc intracardiac injection PCa metastasis mouse model; type: in vivo; conditions: BALB/C nude mice, i.p. 10 mg/kg twice a week for three weeks
Protocol: (§2) To evaluate the effect of gremlin1 antibody on prostate cancer metastases in the lung. PC3 cells (ATCC) were transfected with plasmid constitutively expressing luciferase. PC3-luc cells were collected from logarithmic phase of growth and suspended with 1×10^6 cells in 80 ml basic media (DMEM). The cell suspension was then injected intracardiacally into BALB/C nude mice's heart ventricles (Shanghai SLAC Laboratory Animal). Gremlin1 hybridoma antibody 14E3 or isotype control was given intraperitoneally twice a week for three weeks at a dose of 10 mg/kg. Every two days, the body weight was measured. Mice were anesthetized and administered with D-luciferein (ThermoFisher, L2916) at 15 mg/kg for 5 mins. The Images were captured by the in vivo imaging system (Caliper IVIS bioluminescence system, Caliper LifeScience. USA).

[4] = Body weight in PCa metastasis mouse model; type: in vivo; conditions: BALB/C nude mice; i.p. 10 mg/kg twice a week for three weeks
Protocol: as §2

B1: 14E3: mouse antibody having a heavy chain variable region of SEQ ID NO: 7, and a light chain variable region of SEQ ID NO: 8 (antibody, V domains shown)
VH: QIQLVQSGPELKKPGETVKISCKTSGSTFTTYGMAWMKQAPGKGLTWMGWINTLSGEPTYADDFKGRFAFSLKTSANTAYLQINNLKNEDAATYFCAREPMDYWGQGTSVIVSS
VL: DVVMTQTPLTLSITIGQPASISCKSSQSLLDSDGKTYLSWLLQRPDQSPKRLISLVSKLDSGVPDRITGSGSGTDFTLKISRVEAEDLGIYYCWQGAHFPLTFGAGTKLELK
Question: What does the source list for B1?
Answer: affinity and specificity to hGREM1 (hGREM1): verified; apoptosis (PC3 cells): induced; proliferation (PC3 cells; antibody 10 μg/ml): inhibitory impact; sphere formation (PC3 cells; antibody 10 μg/ml): inhibitory impact; anti-tumor effect of Enzalutamide in combination with the antibody (LNCaP cells; AR dependent LNCaP cells, antibody 100 ng/ml with enzalutamide): potentiated; combination with enzalutamide on tumor inhibition (cell death, Annexin-V/DAPI staining) (LNCaP cells; FIGS. 14D and 10N, combination with enzalutamide): synergistic effects; apoptosis (LNCaP cells; LNCaP cells): induced; proliferation (LNCaP cells; LNCaP cells): inhibitory impact; sphere formation (LNCaP cells; LNCaP cells): inhibitory impact; inhibition of FGFR1/MEK/ERK signaling pathway ([1]; LNCaP cells (FIG. 14C)): dose-dependent inhibition; inhibition of FGFR1/MEK/ERK signaling pathway ([1]; PC3 and LNCaP cells): dose-dependent inhibition; inhibitory effect of 14E3 on PCa cells after BMPRII knockout [2]: did not abrogate; PC3 xenograft tumor growth (PC3 xenograft; i.p. 10 mg/kg three times a week for 2 weeks, vs IgG2a): greatly prohibited; tumor inhibition during secondary tumor passages (PC3 xenograft; i.p. 10 mg/kg, serial passage): more pronounced; growth of PC3 tumor (tumor volume) (PC3 tumor): reduced; survival of mice bearing the tumor (PC3 tumor): prolonged; GREM1 mediated acceleration of tumor cell migration (PC-3 cells): reduced such acceleration; gremlin-mediated increase in PSA-low LNCAP population (LNCaP-PSA cells): neutralized; number of PDOs with reduced organoid growth [3]: 7 out of the 9; formation of PCa metastases in the lung (micrometastases) (PC3-luc cells): potently reduce; average radiance intensity (PC3-luc cells; vs isotype control): obvious inhibition; bodyweight [4]: without influencing

From patent US20240190950A1, “METHOD OF TREATING DISEASES USING GREMLIN1 ANTAGONISTS” (SHANGHAI JIAO TONG UNIVERSITY, priority 2021, published 2024)
